Experimental data as given in the supplement of paper PMC12230231.
± gives the standard deviation of the averaged measurements. Restriction of a single-cycle SIVsab GFP reporter by TRIM5α v1-loop variants in CRFK cells. Human variants: read share among cells still uninfected after two challenges over input, higher = gained restriction. Rhesus variants: share among infected cells over input, higher = lost restriction. Reporter dose not given per row. No active / inactive call per row; the paper calls a change when both replicates lie above its controls (mean + 2 SD of stop or wild-type variants, or the top frameshift score). Residues outside the varied loop are taken from Swiss-Prot. The paper reads the human single-substitution scores as noise; they and the rhesus combinations repeat poorly (rank correlation 0.3 to 0.4), indel scores repeat only for the top variants, rhesus substitutions well (0.9).

Each sequence was assayed on SIVsab (simian immunodeficiency virus of sabaeus monkeys), single-cycle GFP reporter, in CRFK cells (assay: enrichment among infected cells over input (fold); higher = weaker restriction). Settings: library: human / rhesus combinations.
Description: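 Pools of CRFK cells expressing variants of the TRIM5α v1 loop were challenged with the single-cycle reporter, sorted by GFP and sequenced; mean of two replicates.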

Sequence	enrichment
MASGILLNVKEEVTCPICLELLTEPLSLHCGHSFCQACITANHKKSMLYKEGERSCPVCRISYQPENIQPNRHVANIVEKLREVKLSPEEGQKVDHCARHGEKLLLFCQEDSKVICWLCERSQEHRGHHTFLMEEVAQEYHVKLQTALEMLRQKQQEAEKLEADIREEKASWKIQIDYDKTNVSADFEQLREILDWEESNELQNLEKEEEDILKSLTKSETEMVQQTQYMRELISELEHRLQGSMMDLLQGVDGIIKRIENMTLKKPKTFHKNQRRVFRAPDLKGMLDMFRELTDARRYWVDVTLAPNNISHAVIAEDKRQVSSRNPQIMYGARGTLFPSFTNFNYCTGVLGSQSITSGKHYWEVDVSKKSAWILGVCAGFQSDAMYNIEQNENYQPKYGYWVIGLQEGVKYSVFQDGSSHTPFAPFIVPLSVIICPDRVGVFVDYEACTVSFFNITNHGFLIYKFSQCSFSKPVFPYLNPRKCTVPMTLCSPSS [rhesus TRIM5α, 332-344 = GARGTLFPSFT]	1.32 ± 0.58
MASGILLNVKEEVTCPICLELLTEPLSLHCGHSFCQACITANHKKSMLYKEGERSCPVCRISYQPENIQPNRHVANIVEKLREVKLSPEEGQKVDHCARHGEKLLLFCQEDSKVICWLCERSQEHRGHHTFLMEEVAQEYHVKLQTALEMLRQKQQEAEKLEADIREEKASWKIQIDYDKTNVSADFEQLREILDWEESNELQNLEKEEEDILKSLTKSETEMVQQTQYMRELISELEHRLQGSMMDLLQGVDGIIKRIENMTLKKPKTFHKNQRRVFRAPDLKGMLDMFRELTDARRYWVDVTLAPNNISHAVIAEDKRQVSSRNPQIMYQARGTLFQSFVNFNYCTGVLGSQSITSGKHYWEVDVSKKSAWILGVCAGFQSDAMYNIEQNENYQPKYGYWVIGLQEGVKYSVFQDGSSHTPFAPFIVPLSVIICPDRVGVFVDYEACTVSFFNITNHGFLIYKFSQCSFSKPVFPYLNPRKCTVPMTLCSPSS [rhesus TRIM5α, 332-344 = QARGTLFQSFV]	0.688 ± 0.6
MASGILLNVKEEVTCPICLELLTEPLSLHCGHSFCQACITANHKKSMLYKEGERSCPVCRISYQPENIQPNRHVANIVEKLREVKLSPEEGQKVDHCARHGEKLLLFCQEDSKVICWLCERSQEHRGHHTFLMEEVAQEYHVKLQTALEMLRQKQQEAEKLEADIREEKASWKIQIDYDKTNVSADFEQLREILDWEESNELQNLEKEEEDILKSLTKSETEMVQQTQYMRELISELEHRLQGSMMDLLQGVDGIIKRIENMTLKKPKTFHKNQRRVFRAPDLKGMLDMFRELTDARRYWVDVTLAPNNISHAVIAEDKRQVSSRNPQIMYGARGTRFTFPSLTNFNYCTGVLGSQSITSGKHYWEVDVSKKSAWILGVCAGFQSDAMYNIEQNENYQPKYGYWVIGLQEGVKYSVFQDGSSHTPFAPFIVPLSVIICPDRVGVFVDYEACTVSFFNITNHGFLIYKFSQCSFSKPVFPYLNPRKCTVPMTLCSPSS [rhesus TRIM5α, 332-344 = GARGTRFTFPSLT]	0.805 ± 0.046
MASGILLNVKEEVTCPICLELLTEPLSLHCGHSFCQACITANHKKSMLYKEGERSCPVCRISYQPENIQPNRHVANIVEKLREVKLSPEEGQKVDHCARHGEKLLLFCQEDSKVICWLCERSQEHRGHHTFLMEEVAQEYHVKLQTALEMLRQKQQEAEKLEADIREEKASWKIQIDYDKTNVSADFEQLREILDWEESNELQNLEKEEEDILKSLTKSETEMVQQTQYMRELISELEHRLQGSMMDLLQGVDGIIKRIENMTLKKPKTFHKNQRRVFRAPDLKGMLDMFRELTDARRYWVDVTLAPNNISHAVIAEDKRQVSSRNPQIMYQARGTRYTFPTLTNFNYCTGVLGSQSITSGKHYWEVDVSKKSAWILGVCAGFQSDAMYNIEQNENYQPKYGYWVIGLQEGVKYSVFQDGSSHTPFAPFIVPLSVIICPDRVGVFVDYEACTVSFFNITNHGFLIYKFSQCSFSKPVFPYLNPRKCTVPMTLCSPSS [rhesus TRIM5α, 332-344 = QARGTRYTFPTLT]	0.838 ± 0.43
MASGILLNVKEEVTCPICLELLTEPLSLHCGHSFCQACITANHKKSMLYKEGERSCPVCRISYQPENIQPNRHVANIVEKLREVKLSPEEGQKVDHCARHGEKLLLFCQEDSKVICWLCERSQEHRGHHTFLMEEVAQEYHVKLQTALEMLRQKQQEAEKLEADIREEKASWKIQIDYDKTNVSADFEQLREILDWEESNELQNLEKEEEDILKSLTKSETEMVQQTQYMRELISELEHRLQGSMMDLLQGVDGIIKRIENMTLKKPKTFHKNQRRVFRAPDLKGMLDMFRELTDARRYWVDVTLAPNNISHAVIAEDKRQVSSRNPQIMYQARGTRYQSLTNFNYCTGVLGSQSITSGKHYWEVDVSKKSAWILGVCAGFQSDAMYNIEQNENYQPKYGYWVIGLQEGVKYSVFQDGSSHTPFAPFIVPLSVIICPDRVGVFVDYEACTVSFFNITNHGFLIYKFSQCSFSKPVFPYLNPRKCTVPMTLCSPSS [rhesus TRIM5α, 332-344 = QARGTRYQSLT]	1.01 ± 0.4
MASGILLNVKEEVTCPICLELLTEPLSLHCGHSFCQACITANHKKSMLYKEGERSCPVCRISYQPENIQPNRHVANIVEKLREVKLSPEEGQKVDHCARHGEKLLLFCQEDSKVICWLCERSQEHRGHHTFLMEEVAQEYHVKLQTALEMLRQKQQEAEKLEADIREEKASWKIQIDYDKTNVSADFEQLREILDWEESNELQNLEKEEEDILKSLTKSETEMVQQTQYMRELISELEHRLQGSMMDLLQGVDGIIKRIENMTLKKPKTFHKNQRRVFRAPDLKGMLDMFRELTDARRYWVDVTLAPNNISHAVIAEDKRQVSSRNPQIMYQARGTLFTFQSFTNFNYCTGVLGSQSITSGKHYWEVDVSKKSAWILGVCAGFQSDAMYNIEQNENYQPKYGYWVIGLQEGVKYSVFQDGSSHTPFAPFIVPLSVIICPDRVGVFVDYEACTVSFFNITNHGFLIYKFSQCSFSKPVFPYLNPRKCTVPMTLCSPSS [rhesus TRIM5α, 332-344 = QARGTLFTFQSFT]	0.951 ± 0.036
MASGILLNVKEEVTCPICLELLTEPLSLHCGHSFCQACITANHKKSMLYKEGERSCPVCRISYQPENIQPNRHVANIVEKLREVKLSPEEGQKVDHCARHGEKLLLFCQEDSKVICWLCERSQEHRGHHTFLMEEVAQEYHVKLQTALEMLRQKQQEAEKLEADIREEKASWKIQIDYDKTNVSADFEQLREILDWEESNELQNLEKEEEDILKSLTKSETEMVQQTQYMRELISELEHRLQGSMMDLLQGVDGIIKRIENMTLKKPKTFHKNQRRVFRAPDLKGMLDMFRELTDARRYWVDVTLAPNNISHAVIAEDKRQVSSRNPQIMYGAPGTRFQTLVNFNYCTGVLGSQSITSGKHYWEVDVSKKSAWILGVCAGFQSDAMYNIEQNENYQPKYGYWVIGLQEGVKYSVFQDGSSHTPFAPFIVPLSVIICPDRVGVFVDYEACTVSFFNITNHGFLIYKFSQCSFSKPVFPYLNPRKCTVPMTLCSPSS [rhesus TRIM5α, 332-344 = GAPGTRFQTLV]	0.79 ± 0.43
MASGILLNVKEEVTCPICLELLTEPLSLHCGHSFCQACITANHKKSMLYKEGERSCPVCRISYQPENIQPNRHVANIVEKLREVKLSPEEGQKVDHCARHGEKLLLFCQEDSKVICWLCERSQEHRGHHTFLMEEVAQEYHVKLQTALEMLRQKQQEAEKLEADIREEKASWKIQIDYDKTNVSADFEQLREILDWEESNELQNLEKEEEDILKSLTKSETEMVQQTQYMRELISELEHRLQGSMMDLLQGVDGIIKRIENMTLKKPKTFHKNQRRVFRAPDLKGMLDMFRELTDARRYWVDVTLAPNNISHAVIAEDKRQVSSRNPQIMYQARGTRYTFPSFVNFNYCTGVLGSQSITSGKHYWEVDVSKKSAWILGVCAGFQSDAMYNIEQNENYQPKYGYWVIGLQEGVKYSVFQDGSSHTPFAPFIVPLSVIICPDRVGVFVDYEACTVSFFNITNHGFLIYKFSQCSFSKPVFPYLNPRKCTVPMTLCSPSS [rhesus TRIM5α, 332-344 = QARGTRYTFPSFV]	3.45 ± 1.7
MASGILLNVKEEVTCPICLELLTEPLSLHCGHSFCQACITANHKKSMLYKEGERSCPVCRISYQPENIQPNRHVANIVEKLREVKLSPEEGQKVDHCARHGEKLLLFCQEDSKVICWLCERSQEHRGHHTFLMEEVAQEYHVKLQTALEMLRQKQQEAEKLEADIREEKASWKIQIDYDKTNVSADFEQLREILDWEESNELQNLEKEEEDILKSLTKSETEMVQQTQYMRELISELEHRLQGSMMDLLQGVDGIIKRIENMTLKKPKTFHKNQRRVFRAPDLKGMLDMFRELTDARRYWVDVTLAPNNISHAVIAEDKRQVSSRNPQIMYGAPGTRFTFPSLVNFNYCTGVLGSQSITSGKHYWEVDVSKKSAWILGVCAGFQSDAMYNIEQNENYQPKYGYWVIGLQEGVKYSVFQDGSSHTPFAPFIVPLSVIICPDRVGVFVDYEACTVSFFNITNHGFLIYKFSQCSFSKPVFPYLNPRKCTVPMTLCSPSS [rhesus TRIM5α, 332-344 = GAPGTRFTFPSLV]	1.31 ± 0.1
MASGILLNVKEEVTCPICLELLTEPLSLHCGHSFCQACITANHKKSMLYKEGERSCPVCRISYQPENIQPNRHVANIVEKLREVKLSPEEGQKVDHCARHGEKLLLFCQEDSKVICWLCERSQEHRGHHTFLMEEVAQEYHVKLQTALEMLRQKQQEAEKLEADIREEKASWKIQIDYDKTNVSADFEQLREILDWEESNELQNLEKEEEDILKSLTKSETEMVQQTQYMRELISELEHRLQGSMMDLLQGVDGIIKRIENMTLKKPKTFHKNQRRVFRAPDLKGMLDMFRELTDARRYWVDVTLAPNNISHAVIAEDKRQVSSRNPQIMYGAPGTRFTFQSLTNFNYCTGVLGSQSITSGKHYWEVDVSKKSAWILGVCAGFQSDAMYNIEQNENYQPKYGYWVIGLQEGVKYSVFQDGSSHTPFAPFIVPLSVIICPDRVGVFVDYEACTVSFFNITNHGFLIYKFSQCSFSKPVFPYLNPRKCTVPMTLCSPSS [rhesus TRIM5α, 332-344 = GAPGTRFTFQSLT]	1.26 ± 0.26
MASGILLNVKEEVTCPICLELLTEPLSLHCGHSFCQACITANHKKSMLYKEGERSCPVCRISYQPENIQPNRHVANIVEKLREVKLSPEEGQKVDHCARHGEKLLLFCQEDSKVICWLCERSQEHRGHHTFLMEEVAQEYHVKLQTALEMLRQKQQEAEKLEADIREEKASWKIQIDYDKTNVSADFEQLREILDWEESNELQNLEKEEEDILKSLTKSETEMVQQTQYMRELISELEHRLQGSMMDLLQGVDGIIKRIENMTLKKPKTFHKNQRRVFRAPDLKGMLDMFRELTDARRYWVDVTLAPNNISHAVIAEDKRQVSSRNPQIMYGAPGTRFTFPTFTNFNYCTGVLGSQSITSGKHYWEVDVSKKSAWILGVCAGFQSDAMYNIEQNENYQPKYGYWVIGLQEGVKYSVFQDGSSHTPFAPFIVPLSVIICPDRVGVFVDYEACTVSFFNITNHGFLIYKFSQCSFSKPVFPYLNPRKCTVPMTLCSPSS [rhesus TRIM5α, 332-344 = GAPGTRFTFPTFT]	1.11 ± 0.33
MASGILLNVKEEVTCPICLELLTEPLSLHCGHSFCQACITANHKKSMLYKEGERSCPVCRISYQPENIQPNRHVANIVEKLREVKLSPEEGQKVDHCARHGEKLLLFCQEDSKVICWLCERSQEHRGHHTFLMEEVAQEYHVKLQTALEMLRQKQQEAEKLEADIREEKASWKIQIDYDKTNVSADFEQLREILDWEESNELQNLEKEEEDILKSLTKSETEMVQQTQYMRELISELEHRLQGSMMDLLQGVDGIIKRIENMTLKKPKTFHKNQRRVFRAPDLKGMLDMFRELTDARRYWVDVTLAPNNISHAVIAEDKRQVSSRNPQIMYGAPGTLYTFPTFTNFNYCTGVLGSQSITSGKHYWEVDVSKKSAWILGVCAGFQSDAMYNIEQNENYQPKYGYWVIGLQEGVKYSVFQDGSSHTPFAPFIVPLSVIICPDRVGVFVDYEACTVSFFNITNHGFLIYKFSQCSFSKPVFPYLNPRKCTVPMTLCSPSS [rhesus TRIM5α, 332-344 = GAPGTLYTFPTFT]	1.5 ± 0.82
